The campaign covered roughly 310,000 compounds. About 14,000 (4.5%) showed an effect of 50% or more. Effects have a minus sign here. This is one part of the list.
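Note: peak tail current of the secondary pulse compared with the same well before compound.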

Chain of human ether-à-go-go-related gene (hERG) potassium channel (Q12809 whole entry, looked up): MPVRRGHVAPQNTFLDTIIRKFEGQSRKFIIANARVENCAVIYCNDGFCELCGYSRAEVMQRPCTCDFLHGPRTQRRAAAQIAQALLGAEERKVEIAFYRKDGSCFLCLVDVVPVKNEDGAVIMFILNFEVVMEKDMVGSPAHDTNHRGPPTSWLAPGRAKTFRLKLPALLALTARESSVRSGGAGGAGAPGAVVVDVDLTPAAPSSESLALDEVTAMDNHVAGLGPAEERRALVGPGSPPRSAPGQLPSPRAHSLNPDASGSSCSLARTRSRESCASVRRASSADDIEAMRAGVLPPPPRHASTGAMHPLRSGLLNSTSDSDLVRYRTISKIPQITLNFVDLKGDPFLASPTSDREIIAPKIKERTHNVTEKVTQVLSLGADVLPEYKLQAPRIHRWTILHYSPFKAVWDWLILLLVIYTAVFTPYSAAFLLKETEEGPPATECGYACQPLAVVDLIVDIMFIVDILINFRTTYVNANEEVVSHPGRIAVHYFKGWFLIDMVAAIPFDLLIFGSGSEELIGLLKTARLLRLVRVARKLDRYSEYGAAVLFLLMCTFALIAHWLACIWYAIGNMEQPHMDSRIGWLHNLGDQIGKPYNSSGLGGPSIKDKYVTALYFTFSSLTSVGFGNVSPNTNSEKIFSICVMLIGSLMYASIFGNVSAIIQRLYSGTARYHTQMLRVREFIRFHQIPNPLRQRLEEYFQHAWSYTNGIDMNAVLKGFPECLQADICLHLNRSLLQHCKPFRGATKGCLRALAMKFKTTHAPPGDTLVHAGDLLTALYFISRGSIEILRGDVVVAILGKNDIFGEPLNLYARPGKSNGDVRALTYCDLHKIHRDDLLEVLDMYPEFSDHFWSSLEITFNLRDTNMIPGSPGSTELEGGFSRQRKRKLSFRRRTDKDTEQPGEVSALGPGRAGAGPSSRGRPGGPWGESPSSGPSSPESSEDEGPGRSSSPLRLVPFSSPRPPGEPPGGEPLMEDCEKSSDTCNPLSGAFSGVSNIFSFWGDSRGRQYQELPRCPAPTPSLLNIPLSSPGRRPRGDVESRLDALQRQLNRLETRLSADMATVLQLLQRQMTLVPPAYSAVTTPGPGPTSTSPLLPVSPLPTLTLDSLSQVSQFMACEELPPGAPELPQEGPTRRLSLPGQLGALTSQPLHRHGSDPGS

This test has as its target human ether-à-go-go-related gene (hERG) potassium channel (human, UniProt Q12809). Briefly: primary screen, population patch clamp on CHO cells stably expressing hERG.
With `COc1cc(/C=C/C(=O)OCC(=O)Nc2ccc(Cl)cn2)ccc1O`, the “hERG current change (%, negative = inhibition) at 10uM” value is recorded as -6.4%.

In the case of `CCc1cc(C(=O)OC)c(N2C(=O)C3C4C=CC(C4)C3C2=O)s1` (centres unmarked), the “hERG current change (%, negative = inhibition) at 10uM” value was 21.6%.

With `CCc1ccc(C(CC(=O)c2ccc(Cl)cc2)C(=O)O)cc1` (centres unmarked), the “hERG current change (%, negative = inhibition) at 10uM” value worked out at 13.1%.

In the case of `O=C(Nc1ccc2c(c1)CCC2)C1CCN(c2c3c(nc4ncnn24)CCC3)CC1`, the “hERG current change (%, negative = inhibition) at 10uM” value is -73.1%.

With `COc1ccc(N(CC(=O)Nc2ccc(S(=O)(=O)N3CCCCC3)cc2)S(C)(=O)=O)cc1OC`, the “hERG current change (%, negative = inhibition) at 10uM” value is listed as -11%.

On to `O=C(Nc1ccccc1Sc1ccccc1)c1ccccc1`, for which the “hERG current change (%, negative = inhibition) at 10uM” value is recorded as -5.37%.

In the case of `Cc1ccc(NC(=O)COC(=O)c2ccc3c(c2)NC(=O)C2CCCN32)cc1` (centres unmarked), the “hERG current change (%, negative = inhibition) at 10uM” value is on record as -8.37%.

Consider `CNc1nc(N)c(C(=O)C(C)(C)C)s1`, for which the “hERG current change (%, negative = inhibition) at 10uM” value came out at 6.52%.

For `COc1ccc(OC)c(C(C(=O)NC2CCCCC2)N(C(=O)c2ccccn2)c2cccnc2)c1` (centres unmarked), the “hERG current change (%, negative = inhibition) at 10uM” value is on record as 7.19%.

For the compound `CC(C)c1ccc(NC(=O)c2ccc(NS(C)(=O)=O)cc2)cc1`, the “hERG current change (%, negative = inhibition) at 10uM” value came to 3.29%.

With `COc1ccccc1-c1nc(C#N)c(N2CCN(C(=O)c3ccco3)CC2)o1`, the “hERG current change (%, negative = inhibition) at 10uM” value is reported as -4.54%.

Consider `Br.c1ccc(-c2ccccc2OCc2nnc3n2CCC3)cc1`, for which the “hERG current change (%, negative = inhibition) at 10uM” value came to 16.3%.

With `FC(F)(F)c1cc(Cl)c2nnc(-c3ccccn3)n2c1`, the “hERG current change (%, negative = inhibition) at 10uM” value is recorded as -10.4%.

With `N#Cc1ccccc1NC(=O)CN1CCN(c2ccccn2)CC1`, the “hERG current change (%, negative = inhibition) at 10uM” value is -29.8%.

As to `CCCCC(=O)Nc1c(C)cc(C)cc1Cl`, the “hERG current change (%, negative = inhibition) at 10uM” value stood at 7.59%.

In the case of `Cc1ccc(C(=O)NC(O)C(Cl)(Cl)Cl)cc1` (centres unmarked), the “hERG current change (%, negative = inhibition) at 10uM” value amounted to 2.52%.

With `Cc1ccc2nc(SCC(=O)NCC3CCCO3)c(C#N)cc2c1` (centres unmarked), the “hERG current change (%, negative = inhibition) at 10uM” value stood at 12.2%.

With `COC(=O)CNC(=O)c1cccc(Cl)c1`, the “hERG current change (%, negative = inhibition) at 10uM” value was determined as 7.13%.

`CC[n+]1ccccc1/C=C/Nc1ccccc1.[I-]`: the “hERG current change (%, negative = inhibition) at 10uM” value is reported as -44.7%.

On to `COc1ccc(C)cc1NC(=O)CNC(=O)[C@@H]1Cc2ccccc2CN1`, for which the “hERG current change (%, negative = inhibition) at 10uM” value is given as -27.4%.

Take `FC(F)(Cl)c1nnc2ccc(Cl)nn12`: the “hERG current change (%, negative = inhibition) at 10uM” value is recorded as 19.1%.

Regarding `CN(C)c1ccc(-c2cc(O)c3ncccc3c2)cc1.O=C(O)C(F)(F)F`, the “hERG current change (%, negative = inhibition) at 10uM” value is 16.5%.

Take `O=C(CSc1nnc(CNC(=O)c2ccco2)o1)Nc1ccc(Cl)cc1`: the “hERG current change (%, negative = inhibition) at 10uM” value turned out to be 12.9%.

With `CCCCNC(=S)NNC(=O)CCn1nc(C)c(Br)c1C`, the “hERG current change (%, negative = inhibition) at 10uM” value worked out at 1.46%.

As for `CC(C)(C)c1ccc(N2C(=O)CC(c3ccccc3)C2=O)cc1` (centres unmarked), the “hERG current change (%, negative = inhibition) at 10uM” value worked out at 11.7%.

As to `CN(C)C(=O)CSc1n[nH]c(=O)n1CCc1ccccc1`, the “hERG current change (%, negative = inhibition) at 10uM” value came out at 27.3%.

As to `O=C(Nc1ccccc1Cl)C1Cc2ccccc2O/C1=N\O` (centres unmarked), the “hERG current change (%, negative = inhibition) at 10uM” value came out at 8.8%.

Consider `CN(C(=O)c1coc(=O)c2ccccc12)c1ccc(Br)cc1`, for which the “hERG current change (%, negative = inhibition) at 10uM” value is on record as -4.83%.

Take `c1ccc2c(NCCCN3CCOCC3)c3ccccc3nc2c1`: the “hERG current change (%, negative = inhibition) at 10uM” value is -66.6%.

For `CC(=O)Nc1ccccc1NC(=O)C/C(C)=N/NC(=O)c1ccccn1`, the “hERG current change (%, negative = inhibition) at 10uM” value is 16.1%.

Turning to `COc1ccc(C)cc1NC(=O)CSc1nnc2ccc(-c3ccccn3)nn12`, the “hERG current change (%, negative = inhibition) at 10uM” value is on record as -0.164%.

For `NC(=O)CN1C(=O)C(=O)N(Cc2cccc(C(F)(F)F)c2)C1=O`, the “hERG current change (%, negative = inhibition) at 10uM” value stood at 7.41%.

For the compound `Cc1ccc(Sc2ncccc2C(=O)NC2CCCCCC2)cc1C`, the “hERG current change (%, negative = inhibition) at 10uM” value is reported as -0.588%.

Take `S=C(Nc1ccc(Br)cc1Cl)NN1CCOCC1`: the “hERG current change (%, negative = inhibition) at 10uM” value was -8.03%.

For `O=C(C1CC1)N1CCc2sccc2C1c1ccc(Cl)cc1` (centres unmarked), the “hERG current change (%, negative = inhibition) at 10uM” value is -13.8%.

With `CN1C(=O)c2cccc3c(N(C)C)ccc(c23)C1=O`, the “hERG current change (%, negative = inhibition) at 10uM” value is listed as 9.29%.

Take `CN(C)/N=C1\C(=O)N(CN2CCN(c3ccccc3)CC2)c2ccccc21`: the “hERG current change (%, negative = inhibition) at 10uM” value is 11.6%.

As for `O=c1c2sc3ccccc3c2[nH]c(=S)n1CCN1CCOCC1`, the “hERG current change (%, negative = inhibition) at 10uM” value was 12.7%.

`CCn1cc(C(=O)NCCC(C)C)c(=O)c2cc(F)c(N3CCN(C)CC3)cc21`: the “hERG current change (%, negative = inhibition) at 10uM” value is -7.73%.

For `O=S(=O)(c1ccc(Br)c2nsnc12)N1CCOCC1`, the “hERG current change (%, negative = inhibition) at 10uM” value is recorded as 1.43%.

`O=c1ccc2cc3ccoc3cc2o1`: the “hERG current change (%, negative = inhibition) at 10uM” value was 8.89%.

Regarding `COc1cccc(NC(=O)c2ccc(-c3ccc([N+](=O)[O-])cc3)o2)c1`, the “hERG current change (%, negative = inhibition) at 10uM” value is recorded as -36.2%.

As to `CCOC(=O)CC(NC(=O)c1cccs1)c1ccc(OCC)cc1` (centres unmarked), the “hERG current change (%, negative = inhibition) at 10uM” value is on record as -20.2%.

Take `Cc1ccc(C)c(S(=O)(=O)N2CCN(C(=O)CCNC(=O)c3ccc(Br)cc3)CC2)c1`: the “hERG current change (%, negative = inhibition) at 10uM” value is -33.4%.

The values are drawn from PMC4336329 (PLoS ONE, 2015).
